The text below walks through data of the RNAGym collection of RNA variant scans (doi:10.7554/elife.90254).

To fix the notation:
B1: LINE1-full (parent)
chain: UACGUAGGUGGUUUUCCCCUGAUAGUGCUAAGGGGGCCUGGAAGUUUGGACUGGGCAGAGCUCAACACAGCGUGGCAAAGUGGCUGUGGCUAGACUGCCUCUCUGGAUUCCUCGUCACUCAGCAGGGCAUCUCUGAGAGAAAUGCC

The source gives no read counts; variants with many changes may rest on few reads.

The series covers variants of B1. Nature of the series: self-cleavage, relative activity (ratio to wild type); higher = more cleavage; in vitro, sequencing; the parent is a self-cleaving ribozyme.
For the variant UACGUAGGUGGUUUUCCCUUGAUAGUGCUAAGGGGGCCUGGAAGUUUGGACUGGGCAGAGCUCAACACAGCGUGGCAAAGUGGCUGUGGCUAGACUCCCUCUCUGGAUUCCUCGUCACUCAGCAGGGCAUCUCUGAGAGAAACGCC [C19U G97C U143C], the self-cleavage stood at 0.52. Next, UACGUAGGUGGUUUUCCCUUGAUAGUGCUAAAGGGGCCUGGAAGUUUGGACUGGGCAGAGCUCAACGCAGCGUGGCAAAGUGGCUGUGGCUAGACUGCCUCUCUGGAUUCCUCGUCACUCAGCAGGGCAUCCCUGGGAGAAAUGCC [C19U G32A A67G U132C A136G]: 0.34; UACGUAGGUGGUUUUCCCCAGGUAGUGCUAAGGGGGCCUGGAAGUUUGGGCUGGGCAGAGCUCAACACAGCGUGGCAAAGUGGCUGUGGCUAGACCGCCUCUCUGGAUUCCUCGUCACUCAGCAGGGCAUCUCUGAGAGAAAUGCC [U20A A22G A50G U96C]: 0.22. Turning to UACGUAGGUGGUUUUCCCUUGAUAGUGCUAAGGGGGCCCGGAAGCUUGGACUGGGCAGAGCUCUACACAGCGUGGCAAAGUGGCUGCGGCUAGACUGCCUCUCUGGAUUCCUCGUCACUCAGCAGGGCAUCUCUGGGAGAAAUGCC [C19U U39C U45C A64U U87C A136G], the self-cleavage came to 0.09. Take UACGUAGGUGGUUUUCCCUUGAUAGUGCUAAGGGGGCCUGGAAGUUUGGACUGGGCAGAGCUCAACACAGCGUGGCAAAGUGGCUGUGGCUAGACUGCCACUCUGGAUUCCUCGCCACUCAGCAGGGCAUCUCUGAGGGAAAUGCC [C19U U100A U115C A138G]: the self-cleavage was 2.92.

Regarding UACGUAGGUGGUUUUCCCUUGAUAGUGCUAAGGGGGCCUUGAAGUUUGGACUGGGCAGAGCUCAACACAGCGUGGCAAAGUGGCUGUGGCUAGACUGCCUCUCUGGAUUCCUCGCCACUCAGCAGGGCAUCUCUGAGAGAAAUGCC [C19U G40U U115C], the self-cleavage turned out to be 0. As for UACGUAGGUGGUUUUCCCUUGAUAGUGCUAAGGGGGCCUGGAAGUUUGGACUGGGCAGAGCUCAACACAGCGUGGCAAAGUGGCUGUGGCUAGGCUGCCUCCCUGGAUUCCUCGCCACUCAGCAGGGCAUCUCUGAGAGAAAUGCC [C19U A94G U102C U115C], the self-cleavage worked out at 0. On to UACGUAGGUGGUUUUCCCUUGAUAGUGCUAAGUGGGCCUGGAAGUUUGGACUGGGCAGAGCUCAACGCAGCGUGGCAAAGUGGCUGUGGCUAGACUGCCUCUCUGGAUUCCUCGUCACUCAGCAGGGCAUCUCUGAGAGAAAUGCC [C19U G33U A67G], for which the self-cleavage came to 0.29. Next, UACGUAGGUGGUUUUCCCUUGAUAGUGCUAAGGGGGCCUGGAAGUUUGGACUGGGCAGAGCUCAACACAGCGUGGCAAAGUGGCUGUGGCUAGACUGCCUCUCUGGAUACCUCGUCACUCAGCAGGGCGUCUCUGAGAGAAAUGCC [C19U U109A A129G]: 2.1. Take UACGUAGGUGGUUUUCCCUCGAUAGUGCUAAGGGGGCCUGGAAGUUUGGACUGGGCAGAGCUCAACACAGCGUGGCAAAGUGGCUGUGGCUAGACUGCCCCUCUGGAUUCCUCGUCACUCAGCAGGGCAUCUCUGAGAGAAAUGCC [C19U U20C U100C]: the self-cleavage worked out at 1.23. On to UACGUAGGUGGUUUUCCCUUGAUAGUGCUAAGGGGGUCUGGAAGUUCGGACUGGGUAGAGCUCAACACAGCGUGGCAAAGUGGCUGUGGCUAGACUGCCUCUCUGGACUCCUCGUCACUCAGCAGGGCACCUCUGAGAGAAAUGCC [C19U C37U U47C C56U U108C U130C], for which the self-cleavage turned out to be 0.3. For UACGUAGGUGGUUUUCCCUUGAUAGUGCUAAGGGGGCCUGGAAGUUUGGACUGGGCAGAGCUCAACACAGCGUGGCAAAGUGGCCGUGGCUAGACUGCCACUCUGGACUCCUCGUCACUCAGCAGGGCAUCUCUGAGAGAAAUGCC [C19U U85C U100A U108C], the self-cleavage is 0.16. Regarding UACGUAGGUGGUUUUCCCUUGAUAGUGCUAAGGGGGCCCGGAAGUUUGGACCGGGCAGAGCUCAACGCAGCGUGGCAAAGUGGCUGUGGCUAGACUGCCUCUCUGGAUUCCUCGUCACUCAGCAGGGCAACUCUAAGAGAAAUGCC [C19U U39C U52C A67G U130A G135A], the self-cleavage is 0. Turning to UACGUAGGUGGUUUUCCCUUGAUAGUGCUAAGGGGGCCUGGAAGUUAGGACCGGGCAGAGCUCAACACAGCGAGGCAAAGUGGCUGUGGCUAGACUGCCUCUCUGGGUUCCUCGUCACUCAGCAGGGCAUCUCUGAGAGAAAUGCC [C19U U47A U52C U73A A107G], the self-cleavage was 0.54. As to UACGUAGGUGGUUUUCCCUUGAUAGUGCUAAGGGGGCCUGGAAGUUUGGACUGGGCAGAGCUCAACACAGCGCGGCAAAGUGGCUGUGGCUAGACUGCCUCUCUGGAUUCCUCGUCACUCAGCAGGGCAUCCCUGAGAGAAAUGCC [C19U U73C U132C], the self-cleavage came to 2.18.

With UACGUAGGUGGUUUUCCCUUGAUAGUGCUAAGGAGGCCUGGAAGUUUGGACUGGGCAGAGCUCAACACAGCGUGGCAAAGUGGCUGUGGCUAGACCGCCUCUCUGGAUUCCUCGUCACUCAGCAGGGCAUCUCUGAGAGAAAUGCC [C19U G34A U96C], the self-cleavage was 0.14. In the case of UACGUAGGUGGUUUUCCCUUGAUAGUGCUAAGGGGGCCUGGAAGUUCGGACUGGGCAGAGCUCAACACAGCGUGGCAAAGUGGCUGUGGCUAGACUGCCUCUUUGGAUUCCUCGUCACUCAGCAGGGCAUCUCUGAGAGAAAUGCC [C19U U47C C103U], the self-cleavage stood at 1. Regarding UACGUAGGUGGUUUUCCCUUGAUAGCGCUAAGGGGGCCUGGAAGUUUGGACUGGGCAGAGCUCAACGCAGCGUGGCAAAGUGGCUGUGGCUAGACUGCCUCUCUGGAUUCCUCGUCACUCAGCAGGGCAUCUCUGAGAGAAAUGCC [C19U U26C A67G], the self-cleavage is 0.29. Regarding UACGUAGGUGGUUUUCCCUUGAUAGUGCUAAGGGGGCCUGGAAGUUUGGACUGGGCAGAGCUCAACACAGCGUGGCAAAGUGGCUGUGGCUAGACCGCCUCUCUGGGUUCCUCGUCACUAAGCAGGGCAUCUCUGAGGGAUAUGCC [C19U U96C A107G C120A A138G A141U], the self-cleavage was 0.

As to UACGUAGGUGGUUUUCCCUUGAUAGUGCUAAGGGGGCCUGGAAGUUUGGACUGGGCAGAGCUCAACACAGCGUGGCAAAGUGGCAGUGGCUAGACUGCCUCUCUGGAUUCCUCGUCACUCAGCAGGGCAUCUCUGGGAGAAAUGCC [C19U U85A A136G], the self-cleavage was determined as 0.06.
